According to the supplement of paper PMC3724861:
The other results are listed elsewhere or left out.

Test system: T1, Caupolican (Caup) homeodomain DNA-binding domain
T1 sequence: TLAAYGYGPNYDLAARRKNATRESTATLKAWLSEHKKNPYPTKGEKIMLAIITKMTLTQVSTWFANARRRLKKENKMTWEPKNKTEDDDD
Assay: PBM E-score (8-mer, recovered from the published 9-mer minima) (E-score (dimensionless, -0.5 to 0.5)); Drosophila protein; higher = stronger relative binding preference, active = 0.31 or more
How it was run: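 An enrichment score, with higher meaning stronger, expresses relative binding preference for each short DNA word. The protein used was Caup's homeodomain DNA-binding domain (residues 214-303), produced by in vitro transcription and translation and tested at 100 nM on custom-designed protein binding microarrays. The 8-mer values were recovered from published 9-mer scores, each equal to the lower of its two constituent 8-mer scores.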

Sequence	PBM E-score
GACTGGAC	inactive: -0.151
CTAGACTA	inactive: 0.0261
GCCAGTAC	inactive: -0.00492
CTTAAACA	inactive: 0.159
CTAGGGGC	inactive: -0.216
GAGGTAGA	inactive: 0.00792
CTTTAGTC	inactive: -0.0734
ATGCCGCG	inactive: -0.221
CCTCATCG	inactive: -0.0048
CGAATGCC	inactive: -0.153
AGCTAATA	inactive: 0.129
CATCGGAA	inactive: 0.117
AATGCACA	inactive: 0.13
ATAACCGC	inactive: 0.0257
ATCAGGCG	inactive: -0.0921
AACCCTTG	inactive: 0.0147
AAATTGAG	inactive: -0.0322
ATTAGCGG	inactive: -0.0813
CGTTTAGC	inactive: -0.0194
CTAGGTTA	inactive: 0.082
GAGTACAC	inactive: 0.252
GTGGAAAC	inactive: -0.036
CATAAACA	inactive: 0.233
ACAGGTCT	inactive: 0.093
AAGTGGTG	inactive: 0.0246

Sequence	PBM E-score
CGCTTTCC	inactive: -0.242
CAGCCAAA	≥ 0.00118
ACACTCAC	inactive: 0.0262
ACTCTTAA	inactive: 0.0283
ACTCATGC	inactive: -0.0368
TAACGGCA	inactive: -0.0204
AACCTGCG	inactive: -0.0921
CCGAGTCG	inactive: -0.169
ATCCAAGC	inactive: 0.00083
CATCTACA	inactive: 0.21
AAGCAAGT	inactive: 0.0473
CCCACTAC	inactive: 0.0233
ATAGACTA	inactive: 0.115
GCATCAAA	inactive: 0.047
AAGACTAC	inactive: 0.127
CCACGTGC	inactive: -0.0144
GACTGGCC	inactive: -0.191
CCACGTGG	inactive: -0.252
CACCTTGA	inactive: -0.0248
ACCCACGC	inactive: -0.21
TTCGAGAA	inactive: 0.043
GGCGGCTA	inactive: -0.135
CCTCGCCA	inactive: -0.206
AGATCCTA	inactive: 0.0784
AGACGCAC	inactive: -0.121

Sequence	PBM E-score
GTGGTCGA	inactive: -0.00554
CCGTAAGC	inactive: -0.107
ACAAATCC	inactive: 0.179
GGGTCATA	inactive: -0.00301
AACACGGG	active: 0.32
GACCGGTA	inactive: -0.146
AAACTACT	inactive: 0.236
AGCGAGCT	inactive: -0.108
CGCGTGAG	inactive: -0.152
AGGTTCAC	inactive: -0.0392
ACTCCAGG	inactive: -0.135
GCTAGTAA	inactive: 0.162
AGTGTATA	inactive: 0.14
CAATCTAA	inactive: 0.0833
GAGTTCGC	inactive: -0.0905
ATATCGCG	inactive: 0.00651
AACGGAGA	inactive: -0.138
CACAGGCA	inactive: 0.0441
CGTTGATC	inactive: 0.0644
AAAGATGT	inactive: 0.244
CCTAGCCC	inactive: -0.275
GAGGAGCC	inactive: -0.227
ACGCGTGA	inactive: 0.0445
ACTGTGGC	inactive: -0.137
CGGCCGGC	inactive: -0.309

Sequence	PBM E-score
GGTAACTA	inactive: 0.204
AACGTACA	active: ≥ 0.337
CAGGAAAG	inactive: -0.127
CCTAAAAG	inactive: 0.0219
GGCAGTCA	inactive: -0.0773
CAAGGCTG	inactive: -0.00083
CGTGCGTC	inactive: -0.022
CATTCACC	inactive: -0.0438
AACGCCCA	inactive: -0.065
CACAGGGA	inactive: -0.0511
CGTTCGGA	inactive: -0.0594
CAGAAACC	inactive: -0.0673
CTCCACTC	inactive: -0.156
CGCCTTAG	inactive: -0.174
AACGGCTC	inactive: -0.168
AGCTGTCA	inactive: 0.107
ATATAGCG	inactive: -0.0328
AGCACCAT	inactive: -0.102
CTCCGTCC	inactive: -0.201
CAACGTGC	inactive: 0.0892
CATATCCG	inactive: 0.0503
GAATCCAC	inactive: -0.0265
CGTGCAAG	inactive: 0.00178
AGCTCTAT	inactive: -0.09
AGGTAAAC	inactive: 0.129

Sequence	PBM E-score
ACGAATAT	inactive: 0.144
CGCTTAGC	inactive: -0.175
CCGTGGCA	inactive: -0.0857
AGCACCCG	inactive: -0.177
GCGGCTCC	inactive: -0.283
ACCTATTG	inactive: 0.0839
GGAATCCC	inactive: -0.0784
ATCACCCA	inactive: -0.0504
GGTTATTA	inactive: 0.142
GTACGACA	inactive: 0.299
GGATCACC	inactive: -0.0274
CTTAATTC	inactive: 0.0179
GACAGCGA	inactive: 0.00082
CACAGATA	inactive: 0.102
ACGCATTC	inactive: -0.0689
ACTTCACG	inactive: 0.0234
AGCGACGC	inactive: -0.129
ACGATAGC	inactive: 0.0824
AAACACCG	inactive: 0.108
ACTTTAGA	inactive: -0.0192
CAGTCTGC	inactive: -0.0163
AGGGACAC	inactive: 0.149
GGGGCTTA	inactive: -0.208
GGACCATA	inactive: -0.0456
GTGCGGAA	inactive: 0.0604

Sequence	PBM E-score
GATTCAAC	inactive: -0.0523
ATGACCAC	inactive: 0.0659
AAAAGCAT	inactive: 0.1
AATTCCGC	inactive: -0.0948
GCCGGACA	inactive: 0.0438
ACGTCGGG	inactive: -0.16
TAATTCTA	inactive: 0.147
GCGCTCGA	inactive: -0.107
CTCCTGGA	inactive: -0.17
ATCCAGTG	inactive: 0.0502
CCGCGTTA	inactive: -0.054
CTGAGACA	inactive: 0.0775
TTAAGCAA	inactive: 0.0959
AGTTTAAG	inactive: 0.00138
CTCAGGAA	inactive: -0.0747
GATTAGGA	inactive: 0.0485
ACTCGCTC	inactive: -0.103
ATAGGCAA	inactive: 0.0661
ATGTTATA	active: 0.381
AGGAACCT	≥ -0.00983
AGGATTCC	inactive: 0.00145
CTAGATGC	inactive: 0.0316
AGCTCTTA	inactive: -0.0232
CCATCTCC	inactive: -0.145
GGCCGCCA	inactive: -0.276

Sequence	PBM E-score
GACTGTGA	inactive: -0.0131
CGACTCGA	inactive: 0.00401
AGGCTTAA	inactive: -0.0948
AAATGAAA	≥ 0.139
CGTCGGAA	inactive: 0.00767
GAGATGGA	inactive: -0.0584
ACGAGGGA	≥ -0.00203
CGCAAAGC	inactive: -0.2
CTCCGAAA	inactive: -0.0447
ACCCATCT	inactive: -0.0651
CCACTTGC	inactive: -0.0315
GGTATGTA	inactive: 0.277
ATCTCCGC	inactive: -0.173
CAAGAACA	inactive: 0.187
CCGTTGCG	inactive: -0.204
CACACGTA	inactive: 0.142
ATCCCTAA	inactive: -0.09
CGGCCAAC	inactive: -0.141
AAAGCCGC	inactive: -0.213
GCAGCGGC	inactive: -0.252
GAGTGTGA	inactive: 0.0709
GAGAAACA	inactive: 0.151
CGGAGGGA	inactive: -0.227
CCTTGGAG	inactive: -0.193
AACGATTG	inactive: 0.13

Sequence	PBM E-score
ACCAGGTA	inactive: 0.02
AAATTGGA	inactive: 0.133
AGGTAGTG	inactive: -0.021
ACCGTCCT	inactive: -0.0635
CAATGAGA	inactive: 0.0493
ACGGTTAT	inactive: 0.0448
GTTTCTTA	inactive: 0.091
CCCATCGC	inactive: -0.194
AGTGGCCG	inactive: -0.226
CGTGACCC	inactive: -0.102
AGATCGAA	inactive: 0.0457
GGCTGAAA	inactive: -0.0736
CTCTCGCC	inactive: -0.229
GCGGGAAA	inactive: -0.129
GAATTACA	inactive: 0.29
ATGTCGGA	inactive: 0.263
CGTATTAG	inactive: 0.125
TCTAGAGA	inactive: -0.0673
CAGTGATC	inactive: 0.0398
CCCTGAGG	inactive: -0.185
CCATAATA	inactive: 0.114
AGATAGTC	inactive: 0.0191
AAAAGGTT	inactive: -0.0248
ATTCATCC	inactive: 0.0789
ATTATTAA	inactive: 0.191

Sequence	PBM E-score
TGAAAAAA	inactive: 0.0242
CACGCCGG	inactive: -0.125
AGATAATG	inactive: 0.131
CGTTTGCC	inactive: -0.0961
ATGAGGAC	inactive: -0.0171
GCCATCGC	inactive: -0.205
TATACTGA	inactive: 0.172
ACAAAGTG	inactive: 0.058
CTCATAGA	inactive: 0.0135
ACGCGCGG	inactive: -0.171
ACAATCGA	inactive: 0.11
CAACCGGG	inactive: -0.162
TCGCCCAA	inactive: -0.147
ATGAATAC	inactive: 0.144
CACATGGA	inactive: 0.156
TGATTCAA	≥ 0.125
AAGTGCAA	inactive: 0.0804
TGTGATAA	inactive: 0.207
GCTTGATA	inactive: 0.00938
ACCAGCGC	inactive: -0.106
ATGCACAA	inactive: 0.143
AAACATGG	active: 0.321
AGGGCAGC	inactive: -0.267
